Source: PubChem BioAssay AID2202238 (Ras Initiative Chemistry Research Team, Frederick National …, 2025)
This is one part of the list. The main result of the screen is listed elsewhere. These columns were measured beside it and carry no call.

Molecular target: GTPase KRas (Homo sapiens) (UniProt P01116)
Assay: Fragment capture on engineered cysteines, share of protein labelled (AID 2202238)
Parameters: protein at 5 µM with 500 µM competing thiol for 1.5 h
Conditions: KRAS G12D cysteine mutants, disulfide tethering, MALDI-TOF labeling, stronger effect = higher value, fragment at 500 µM
[1] = measured here: G60C mutant labeling
[2] = measured here: G75C mutant labeling
[3] = measured here: H94C mutant labeling
[4] = measured here: I36C mutant labeling
[5] = measured here: L120C mutant labeling
[6] = measured here: M67C mutant labeling
[7] = measured here: M72C mutant labeling
[8] = measured here: N26C mutant labeling
[9] = measured here: N86C mutant labeling
[10] = measured here: P121C mutant labeling
[11] = measured here: S122C mutant labeling
[12] = measured here: S136C mutant labeling

UniProt P01116, sequence (P01116 whole entry, looked up, the tested form may be a part): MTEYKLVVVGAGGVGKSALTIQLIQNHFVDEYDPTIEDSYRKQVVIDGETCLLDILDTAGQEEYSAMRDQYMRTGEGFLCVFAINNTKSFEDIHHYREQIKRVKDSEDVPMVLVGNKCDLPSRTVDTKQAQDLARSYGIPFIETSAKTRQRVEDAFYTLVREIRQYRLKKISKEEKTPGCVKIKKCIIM

| SMILES | percent labeling [1] [%] | percent labeling [2] [%] | percent labeling [3] [%] | percent labeling [4] [%] | percent labeling [5] [%] | percent labeling [6] [%] | percent labeling [7] [%] | percent labeling [8] [%] | percent labeling [9] [%] | percent labeling [10] [%] | percent labeling [11] [%] | percent labeling [12] [%] |
| --- | --- | --- | --- | --- | --- | --- | --- | --- | --- | --- | --- | --- |
| Nc1ncnc2c1ncn2CCC(=O)NCCS | 23.4 | 7.3 | 11.4 | 21.1 | 22.1 | 15.1 | 9 | 23.4 | 9.1 | 23.4 | 12.6 | 22.9 |
| O=C(CCS)NC1Cc2cc(Br)cnc2NC1=O (stereo unspecified) | – | 11.6 | 25.9 | 41.9 | 30.6 | 31.7 | 29.6 | – | 19 | 30 | 24.9 | 47.3 |
| CC(C)Oc1cc(CN(C(=O)CCS)C2CC2)ccn1 | – | 23.4 | 41.4 | 36.7 | 31.3 | 59.1 | 39.1 | – | 28.4 | 32.1 | 33.1 | 55.4 |
| Cc1cc(=O)[nH]c2cc(C(=O)NCCS)ccc12 | 8 | 5.2 | 7.1 | 6.8 | 0 | 6.3 | 25.1 | 23.2 | 0 | 0 | 4 | 13.4 |
| O=C(NCCS)c1cc2ccccc2cc1O | 21.8 | 20.9 | 9.2 | 9.5 | 9.2 | 10.2 | 40.4 | 30 | 7.8 | 15.7 | 8.1 | 17.2 |
| Cn1c(-c2ccccc2)c(C(=O)NCCS)c2ccccc21 | 45.9 | 19 | 50.8 | 11.1 | 16.4 | 19.5 | 41.1 | 33.4 | 16 | 15.6 | 10.7 | 25 |
| O=C(NCCS)C1CC(O)CN1C(=O)Cc1ccccc1F (stereo unspecified) | 27.7 | 10 | 30 | 20.6 | 37.7 | 41.1 | 11.3 | 30.4 | 22.2 | 30.2 | 25.9 | 34.2 |
| CC(C)(C)OC(=O)NC1CCC2(CC1)CN(C(=O)CCS)CCO2 (stereo unspecified) | – | 8.5 | 25.5 | 27.1 | 17.2 | 27.6 | 16.3 | – | 17 | 25.3 | 23 | 44.3 |
| Cc1ccc(S(=O)(=O)C2CCN(C(=O)CCS)CC2)cc1 | – | 15.9 | 28.1 | 36.6 | 26.2 | 40 | 28.2 | – | 22.1 | 24.8 | 26.7 | 52.2 |
| O=C(CCS)NC1CCN(CC(=O)N2CCOCC2)CC1 | – | 0 | 9.6 | 20.7 | 11.5 | 21.9 | 3.6 | – | 4 | 14.9 | 13.5 | 22.4 |
| Cc1cc(=O)n(CCNC(=O)CCS)cn1 | – | 24.5 | 24.9 | 38.8 | 25.1 | 34.1 | 12.9 | – | 29.7 | 39.5 | 40.4 | 48.4 |
| O=C(COc1ccc2c3c(c(=O)oc2c1)CCC3)NCCS | 27.3 | 11.9 | 11.5 | 9.5 | 11.7 | 7.8 | 33.5 | 21.7 | 12.5 | 13.7 | 0 | 9.6 |
| Cc1cc(C2(NC(=O)CCS)CCOCC2)on1 | – | 7.7 | 27.3 | 38.9 | 32.2 | 32.9 | 11.7 | – | 16 | 37 | 31 | 51 |
| O=C(NCCS)c1cn2c(n1)CCCC2 | 31.8 | 24 | 35.9 | 27.8 | 44.7 | 32.7 | 29.2 | 37 | 26.8 | 28.9 | 32.7 | 47.8 |
| O=C(Cc1c(Cl)cccc1Cl)NCCS | 41.8 | 16.7 | 20.4 | 19.7 | 30.8 | 19.6 | 40.5 | 28 | 13.4 | 18.3 | 16.2 | 26.6 |
| O=C(CCS)NCc1ccc2c(c1)C(=O)NC2 | – | 12 | 24.4 | 40.7 | 28.7 | 31 | 22.3 | – | 31.9 | 28 | 27.6 | 51.6 |
| O=C(CCS)Nc1cccc(-c2ncc3n2CCCC3)c1 | – | 8.4 | 20.5 | 25 | 20.6 | 34.7 | 44.4 | – | 18.5 | 19.8 | 17.9 | 47 |
| O=C(CCS)Nc1cccn(CCCn2ccnc2)c1=O | – | 16 | 34.2 | 41.2 | 36.2 | 36.5 | 30.6 | – | 33.2 | 29.7 | 30.5 | 47.3 |
| Cc1cc(NC(=O)C2CC2)sc1C(=O)NCCS | 26.2 | 16.7 | 21.5 | 14.4 | 28 | 22.1 | 33 | 43.8 | 32.7 | 16.3 | 21.1 | 34.7 |
| O=C(CCc1ccc(-c2ccccc2)o1)NCCS | 20.4 | 7.2 | 16.5 | 6.6 | 20.7 | 13.9 | 5.1 | 14.6 | 7.5 | 10.6 | 9.2 | 10.5 |
| Cc1ccc(-c2nc(CC(=O)NCCS)cs2)cc1 | 34.5 | 15.8 | 23.6 | 12.8 | 44.3 | 17.8 | 33.5 | 30.9 | 15.6 | 18.3 | 15.3 | 22.5 |
| O=C(CCCn1ccc2cc(Cl)ccc21)NCCS | 45.1 | 16 | 24.4 | 9.9 | 27.2 | 12.7 | 32.9 | 31.2 | 11.2 | 21.8 | 9.1 | 18 |
| O=C(NCCS)c1cc(Cl)ccc1-n1cnnn1 | 31.5 | 13.9 | 26.1 | 22.5 | 35.3 | 24.8 | 24.2 | 36.8 | 26.3 | 31.9 | 25.3 | 35.2 |
